Structures are written as SMILES. Screen size: about 52,000 compounds; about 4,300 (8.3%) were called active. No stated cut-off is given here; in the data, active means survival mostly below about 52% (no sharp cut-off); inactive means mostly above about 56%. This is one part of the list.

The test has as its system DeltatarO mutant. Description: growth inhibition of S. aureus wild type versus tarO mutant, primary screen, teichoic acid synthesis inhibitors, RN4220, OD600 (AID 463173). As to conditions: OD600, 18 h, hits give low values, screened at 18.75 µg/mL (by protocol).
For `COc1ccccc1-n1c(=O)c2c3c(sc2n(Cc2ccccc2F)c1=O)CN(C(C)=O)CC3`, the survival was inactive: 120%. For `CC(C)(C)C(=O)Nc1ccc2nc(SCC(=O)N3CCc4ccccc43)sc2c1`, the survival was inactive: 109%. For the compound `Cc1ccc(S(=O)(=O)c2cn(CC(=O)Nc3ccc4c(c3)OCO4)c3ccccc3c2=O)cc1C`, the survival was inactive: 112%. Next, `CS(=O)(=O)Cc1nc2ccccc2oc1=O`: inactive: 64%; `O=C(NCCS(=O)(=O)N1CCN(c2ccc(F)cc2)CC1)C1CC(=O)N(c2ccccc2)C1` (stereo unspecified): inactive: 89%.

In the case of `CCOc1ccc(NC(=O)c2cc3cc4cc(OC)ccc4nc3s2)cc1`, the survival was inactive: 82%. Next, `Cc1cccc(NS(=O)(=O)c2ccc3c(c2)OCC(C(=O)N2CCCC2)O3)c1C` (stereo unspecified): inactive: 67%; `CCc1nn(CCCC(=O)NCc2cc(Br)ccc2OC)c(=O)c2cc3occc3n12`: active: 46%.

Consider `COc1cccc(C(=O)Nc2cccc(C(=O)OCc3cc(=O)n4c5c(sc4n3)CCCC5)c2)c1`, for which the survival was inactive: 98%.

As to `COc1ccc(Cn2nnnc2CN2CCc3ccccc32)cc1`, the survival was inactive: 73%. The figure for `CCCN1CCN(CCNC(=O)Nc2ccccc2OCC)CC1` is inactive: 60%; for `COc1cc2nc(C3CCC3)n(NC(=O)c3ccccc3C)c(=O)c2cc1OC` it is inactive: 104%. Regarding `CCCN(Cc1cccs1)C(=O)Nc1ccc(Br)cc1F`, the survival is inactive: 57%.

As for `Cc1cc2c(n1-c1ccc(C(=O)NCCc3ccccc3)cc1)CCC(C)C2` (stereo unspecified), the survival was inactive: 77%. The figure for `COc1ccc2[nH]c(=O)c(CN(C(=O)c3cccc(Cl)c3)c3cccc(C)c3)cc2c1` is inactive: 60%; for `CCN1CCN(c2ncc3c(n2)CCN(Cc2ccc(OC)c(OC)c2)C3)CC1` it is inactive: 79%; for `Cc1cc2c(n1-c1ccc(C(=O)NCc3ccc(OC(C)C)cc3)cc1)CCCC2` it is inactive: 74%.

As for `COc1cc(-c2oc3ccc(C)cc3c(=O)c2O)cc(OC)c1OC`, the survival was inactive: 89%. Consider `COc1ccc2c(c1)c1c(c(=O)n(-c3cccc(C)c3)c(=O)n1CC(=O)NCC1CCCO1)n2C` (stereo unspecified), for which the survival was inactive: 76%. The figure for `COc1ccccc1NC(=O)CSc1oc(-c2ccccc2)nc1S(=O)(=O)c1ccccc1` is inactive: 145%. The figure for `CCC(Sc1nc(N)cc(=O)[nH]1)C(=O)Nc1cccc2ccccc12` (stereo unspecified) is inactive: 97%; for `COc1ccccc1CNC(=O)CCCn1c(=O)c2ccccc2n(Cc2ccccc2C#N)c1=O` it is inactive: 139%; for `Cc1cccc(Cc2c(C)nc3nc(SCc4ccccc4F)nn3c2C)c1` it is inactive: 84%. Next, `COc1cccc(CNC(=O)CCCCCn2c(=O)[nH]c3cc(OC)c(OC)cc3c2=O)c1`: inactive: 154%; `CCN1C(=O)c2ccccc2S(=O)c2ccc(C(=O)N3CCN(c4ccccc4OC)CC3)cc21` (stereo unspecified): inactive: 71%.

As to `CN1CCN(C(=O)NC2CCCCC2)CC1`, the survival is inactive: 91%. The figure for `CN(Cc1ccccc1)C(=O)c1cc(-c2cccc(Cl)c2)on1` is active: -15%.

For `COc1cc(C(CC(=O)Nc2cc(C)ccn2)N2Cc3ccccc3C2=O)cc(OC)c1OC` (stereo unspecified), the survival was inactive: 76%. Next, `CCOC(=O)c1c(C)[nH]c(C)c1S(=O)(=O)NCC(=O)NCc1ccccc1Cl`: inactive: 96%.

Take `CCc1ccc(-n2nc(CO)c(C(=O)NCc3cccnc3)n2)cc1`: the survival is inactive: 51%. In the case of `O=C(c1ccc2c(c1)N(Cc1ccc(Cl)cc1)C(=O)c1ccccc1S2(=O)=O)N1CCN(Cc2ccccc2)CC1`, the survival is inactive: 78%. Next, `O=S(=O)(c1ccc(Br)cc1)c1nnn2c1nc(NCCc1ccccc1)c1sccc12`: inactive: 37%; `Cc1ccc(CCNC(=O)CCn2nc(-c3ccc(Cl)cc3)ccc2=O)cc1`: inactive: 67%; `COc1ccc(N2C(=O)CCSC23C(=O)N(Cc2ccc(F)cc2)c2ccccc23)cc1` (stereo unspecified): inactive: 75%. `Cc1ccc(-c2onc(C)c2C)cc1S(=O)(=O)Nc1cccc(Cl)c1C`: the survival was inactive: 61%. The figure for `COc1ccc(CCCc2n[nH]c(=S)n2C)cc1C` is inactive: 74%; for `Cc1nc2ccc(S(=O)(=O)NC(C(=O)N3CCN(c4cccc(Cl)c4)CC3)C(C)C)cc2s1` (stereo unspecified) it is inactive: 80%; for `O=C(NC1CCCCC1)NC1CCN(CC(=O)c2ccc(Cl)cc2)CC1` it is inactive: 71%. The figure for `CCc1ccc(C(=O)NC2=NC(c3cc(OC)ccc3OC)CC(=O)N2)cc1` (stereo unspecified) is inactive: 101%. The figure for `Cc1ccc(-c2nn(C)c(=O)c3ccccc23)cc1S(=O)(=O)NCCCN(C)C` is inactive: 61%. For `O=C(Nc1ccc(-c2nc3cc(NC(=O)c4ccc(Cl)cc4)ccc3o2)cc1)c1ccc(Cl)cc1`, the survival was inactive: 88%. As to `COc1ccc(-c2cc(C(F)(F)F)n3nc(C(=O)Nc4sc5c(c4C(=O)OC(C)C)CCC(C)C5)cc3n2)cc1` (stereo unspecified), the survival is inactive: 78%.

Consider `CCCN(CCC)C(=O)C1CCCN(S(=O)(=O)c2cc(Br)cc3c2N(C(=O)CC)CC3)C1` (stereo unspecified), for which the survival was inactive: 91%. Next, `COc1ccc(CNC(=O)C(OC(=O)c2ccco2)c2ccc(C)cc2)cc1` (stereo unspecified): inactive: 74%; `COc1ccc(C2=C(C)C(N3CCN(c4ccc(OC)cc4)CC3)=NS2(=O)=O)cc1`: inactive: 91%. The figure for `CCOCCCn1c(=N)c(C(=O)NC(C)c2ccccc2)cc2c(=O)n3cccc(C)c3nc21` (stereo unspecified) is inactive: 122%; for `COc1ccc(C(=O)NNc2ncnc3c2cnn3-c2ccc(C)cc2C)cc1` it is active: 0%; for `CN(C(=O)c1ccc2c(c1)N(Cc1ccc(F)cc1)C(=O)c1ccccc1S2(=O)=O)C1CCCCC1` it is inactive: 71%.

On to `CCC(CC)C(=O)Nc1nnc(S(=O)(=O)N2c3ccccc3CC2C)s1` (stereo unspecified), for which the survival is inactive: 61%.

`Fc1cccc(-c2nnn3c2nc(NCc2ccc4c(c2)OCO4)c2ccccc23)c1`: the survival was inactive: 85%. Next, `Cc1cc(N2CCC(C(=O)Nc3ccccc3Cl)CC2)n2nc(C)c(-c3ccc(Cl)cc3)c2n1`: inactive: 81%; `Cc1ccc2occ(CC(=O)Nc3ccc(Cl)c(C(F)(F)F)c3)c2c1`: inactive: 48%; `Cc1nc(N2CCCC2)ncc1C(=O)NCc1ccc(F)cc1`: inactive: 89%. In the case of `Cc1cn2c(=O)c(S(=O)(=O)Nc3ccc(N4CCOCC4)cc3)c(C)nc2s1`, the survival is inactive: 60%. `COCCNC(=O)c1cnn(-c2cccc(C)c2)c1-n1cccc1`: the survival is inactive: 102%. Next, `CC1CCN(S(=O)(=O)c2cc(C(=O)NCc3ccccc3)n(C)c2)CC1`: inactive: 79%.

These data come from PubChem BioAssay AID463173 (ICCB-Longwood Screening Facility, Harvard Medical School, 2010).
